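Cultured in 96-well plates, cells were exposed to test compound for 48 hours across five concentrations. At the GI50, growth is halved. The concentration for full growth arrest is given as TGI.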

The assay has as its system NCI-H322M lung. The assay is described as follows: inhibition of tumour cell growth, NCI panel, 48 h.

With `COc1ccc2cc([C@H](C)C(=O)[Se]CCC#N)ccc2c1`, the GI50 was 2.08 µM and the TGI was found to be 5.86 µM.

Regarding `CCC[Se]C(=O)c1ccc(C(=O)[Se]CCC)s1`, the GI50 was below 0.01 µM and the TGI stood at 0.311 µM.

Regarding `FC(F)(F)c1cc2c(Cl)ncnc2n1CCN1CCOCC1`, the GI50 is 16 µM and the TGI is 54 µM.

Turning to `CN(C)c1nc(NCCNS(=O)(=O)c2ccc(C3=Nc4c(N)nc(N)nc4NC(c4ccc(C(F)(F)F)cc4)C3)cc2)nc(Nc2ccc(F)cc2)n1` (stereo not given), the GI50 is 42.5 µM and the TGI is above 86 µM.

`O=C(N/N=C/c1c[nH]c2ccccc12)Nc1ccc(F)c(Cl)c1`: the GI50 is 15.2 µM and the TGI was found to be 29.6 µM.

The values are drawn from PubChem BioAssay (NCI).
